Assay results: the supplement of paper PMC6531468
The list shows a part of the results. Values come from read counts of a selection and are noisy. Each score is taken over the longer molecules that contain the sequence shown.

Tests used:
Assay in all cases: 6-mer SELEX enrichment z-score vs GST control; IMP3 is the RNA-binding protein IGF2BP3; higher = more enriched by binding
IMP3 KH1-4 = conditions: construct: KH1-4 (164-579); SELEX round: R4
Procedure: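 SELEX-seq with GST-tagged IMP3 KH1-4 (Pro164-Lys579) and an N40 RNA pool, round 4. 6-mer z-score of sequence-tag enrichment normalised to the corresponding GST SELEX round; RNA k-mers written as DNA (T for U).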

IMP3 RRM1-2 = conditions: construct: RRM1-2 (1-163); SELEX round: R2
Procedure: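 SELEX-seq with GST-tagged IMP3 RRM1-2 (Met1-Asn163) and an N40 RNA pool, round 2. 6-mer enrichment z-score normalised to GST SELEX. RNA written as DNA (T = U).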

IMP3 full-length = IMP3 full-length (UniProt O00425); conditions: construct: FL IMP3 (1-579); SELEX round: R4
Procedure: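 SELEX-seq with GST-tagged full-length IMP3 and an N40 RNA pool, round 4. Each 6-mer is scored as an enrichment z-score of sequence tags containing it, normalised to the matching GST SELEX round. RNA written as DNA (T = U).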

IMP3 KH1-2 = conditions: construct: KH1-2 (164-376); SELEX round: R4
Procedure: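 SELEX-seq with GST-tagged IMP3 KH1-2 (Pro164-Phe376) and an N40 RNA pool, round 4 (stringent 300/600 mM KCl washes). 6-mer z-score of sequence-tag enrichment normalised to the corresponding GST SELEX round; RNA k-mers written as DNA (T for U).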

IMP3 KH3-4 = conditions: construct: KH3-4 (377-579); SELEX round: R4
Procedure: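 SELEX-seq with GST-tagged IMP3 KH3-4 (Pro377-Lys579) and an N40 RNA pool, round 4. 6-mer z-score of sequence-tag enrichment normalised to the corresponding GST SELEX round; RNA k-mers written as DNA (T for U).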

IMP3 RRM1-2, sequence (chain, as listed by the source): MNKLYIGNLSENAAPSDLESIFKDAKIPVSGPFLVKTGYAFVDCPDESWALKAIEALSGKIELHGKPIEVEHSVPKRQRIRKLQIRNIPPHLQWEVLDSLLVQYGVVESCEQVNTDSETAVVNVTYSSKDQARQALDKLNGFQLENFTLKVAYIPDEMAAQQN
IMP3 KH3-4, sequence (chain, as listed by the source): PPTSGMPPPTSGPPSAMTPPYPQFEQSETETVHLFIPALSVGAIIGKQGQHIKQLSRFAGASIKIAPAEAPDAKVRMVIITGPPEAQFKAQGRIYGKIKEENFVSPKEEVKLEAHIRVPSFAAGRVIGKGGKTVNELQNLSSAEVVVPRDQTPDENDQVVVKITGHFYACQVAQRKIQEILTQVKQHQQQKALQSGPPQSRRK
UniProt O00425, sequence (O00425 whole entry): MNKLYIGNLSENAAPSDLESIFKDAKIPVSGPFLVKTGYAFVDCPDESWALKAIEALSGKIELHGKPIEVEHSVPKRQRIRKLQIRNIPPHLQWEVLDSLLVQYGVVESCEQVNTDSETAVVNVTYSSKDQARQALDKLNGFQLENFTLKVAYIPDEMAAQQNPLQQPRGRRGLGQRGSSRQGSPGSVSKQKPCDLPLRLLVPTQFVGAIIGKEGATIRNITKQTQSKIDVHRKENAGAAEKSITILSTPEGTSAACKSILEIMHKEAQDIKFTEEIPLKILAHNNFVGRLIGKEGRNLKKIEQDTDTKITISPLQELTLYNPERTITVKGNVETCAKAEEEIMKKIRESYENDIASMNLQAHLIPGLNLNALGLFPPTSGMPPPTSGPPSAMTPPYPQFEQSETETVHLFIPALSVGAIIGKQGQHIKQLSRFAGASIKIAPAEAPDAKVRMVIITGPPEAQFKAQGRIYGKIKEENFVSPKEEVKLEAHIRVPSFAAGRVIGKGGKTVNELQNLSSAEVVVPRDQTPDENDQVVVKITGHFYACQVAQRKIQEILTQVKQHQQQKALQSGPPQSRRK
IMP3 KH1-2, sequence (chain, as listed by the source): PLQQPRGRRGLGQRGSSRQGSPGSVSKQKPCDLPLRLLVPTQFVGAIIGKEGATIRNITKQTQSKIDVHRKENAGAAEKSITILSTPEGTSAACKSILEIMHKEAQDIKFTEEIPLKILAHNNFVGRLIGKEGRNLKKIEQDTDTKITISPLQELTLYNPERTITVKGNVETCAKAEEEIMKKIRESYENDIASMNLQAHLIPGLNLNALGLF
IMP3 KH1-4, sequence (chain, as listed by the source): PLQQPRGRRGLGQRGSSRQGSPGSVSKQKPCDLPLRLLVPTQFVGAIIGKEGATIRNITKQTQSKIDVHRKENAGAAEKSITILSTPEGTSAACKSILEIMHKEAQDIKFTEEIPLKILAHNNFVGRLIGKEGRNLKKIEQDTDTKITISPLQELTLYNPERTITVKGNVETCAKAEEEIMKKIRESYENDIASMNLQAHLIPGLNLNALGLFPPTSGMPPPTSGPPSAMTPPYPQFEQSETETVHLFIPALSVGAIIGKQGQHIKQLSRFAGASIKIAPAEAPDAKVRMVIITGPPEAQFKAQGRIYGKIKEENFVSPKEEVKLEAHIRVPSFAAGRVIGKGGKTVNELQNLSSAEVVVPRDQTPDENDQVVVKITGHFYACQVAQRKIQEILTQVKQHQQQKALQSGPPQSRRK

| Sequence | 6-mer SELEX enrichment z-score (IMP3 KH1-4) | 6-mer SELEX enrichment z-score (IMP3 RRM1-2) | 6-mer SELEX enrichment z-score (IMP3 full-length) | 6-mer SELEX enrichment z-score (IMP3 KH1-2) | 6-mer SELEX enrichment z-score (IMP3 KH3-4) |
| --- | --- | --- | --- | --- | --- |
| CGTGTA | -0.363 | -0.05 | -0.363 | -0.38 | -0.283 |
| CTGCGA | -0.872 | -0.464 | -0.429 | -0.83 | -0.849 |
| ACTAGG | 0.194 | 0.117 | 0.114 | 0.123 | 0.282 |
| TGGCAG | 0.699 | 0.342 | 0.971 | 0.558 | 0.625 |
| TCGCTA | 0.433 | 0.13 | 0.097 | 0.376 | 0.349 |
| AGCGAT | -1.3 | -0.267 | -0.655 | -1.2 | -1.04 |
| ACTTTC | 0.899 | 0.347 | 0.248 | 0.92 | 0.565 |
| GACGTG | -0.97 | -0.698 | -0.692 | -0.948 | -0.907 |
| TCCCAA | -1.71 | -0.853 | -1.56 | -1.63 | -2.05 |
| GCAAAA | -0.611 | -1.2 | -0.746 | -0.556 | -0.184 |
| AAGAAG | 0.432 | -1.36 | -0.795 | 0.207 | 0.956 |
| TTCGCA | 0.482 | 0.318 | 0.318 | 0.438 | 0.234 |
| GAAAGC | -1.47 | -1.18 | -1.29 | -1.39 | -1.23 |
| TACGTC | -0.24 | 0.207 | 0.069 | -0.311 | -0.296 |
| GCTGCG | -0.218 | 0.202 | 0.094 | -0.12 | -0.132 |
| ATGTGT | 0.592 | 0.061 | -0.154 | 0.229 | 0.538 |
| AGCGTA | -5.06 | -0.632 | -2.98 | -4.7 | -4.55 |
| GCATAT | 0.976 | 0.582 | 0.832 | 0.751 | 0.969 |
| GTGGGT | 0.091 | 0.42 | 0.226 | 0.258 | 0.314 |
| CGAGTG | -2.46 | -0.145 | -1.32 | -2.24 | -2.09 |
| CAGAGC | -2.52 | 0.331 | -0.035 | -2.36 | -2.39 |
| GGGTAA | -0.086 | -0.116 | -0.047 | 0.016 | 0.287 |
| CTGGAA | -0.122 | -0.654 | -0.516 | -0.218 | -0.264 |
| GTAGAG | -0.445 | -0.148 | -0.264 | -0.427 | -0.234 |
| CCGGTA | -0.401 | -0.275 | -0.162 | -0.422 | -0.389 |
| GAGTGG | -0.042 | -0.034 | 0.073 | 0.051 | 0.113 |
| ATTTAG | 0.734 | 0.176 | 0.198 | 0.579 | 1.17 |
| ACCCCC | 0.061 | -1.22 | -1.18 | 0.499 | -1.26 |

| Sequence | 6-mer SELEX enrichment z-score (IMP3 KH1-4) | 6-mer SELEX enrichment z-score (IMP3 RRM1-2) | 6-mer SELEX enrichment z-score (IMP3 full-length) | 6-mer SELEX enrichment z-score (IMP3 KH1-2) | 6-mer SELEX enrichment z-score (IMP3 KH3-4) |
| --- | --- | --- | --- | --- | --- |
| TGGCAC | 1.05 | 0.569 | 1.54 | 0.703 | 0.788 |
| CTGGGG | 0.047 | 0.182 | 0.215 | 0.375 | 0.158 |
| TCGTAG | -0.668 | 0.29 | -0.332 | -0.581 | -0.474 |
| ACTACG | 0.2 | -0.338 | -0.199 | 0.198 | 0.063 |
| TTCTAG | 0.22 | 0.299 | 0.02 | 0.165 | 0.302 |
| GTGTTA | -0.193 | 0.129 | -0.256 | -0.231 | -0.006 |
| AAGCTC | -0.564 | -0.236 | -0.28 | -0.493 | -0.537 |
| GTAGCG | -1.14 | 0.06 | -0.504 | -1.06 | -0.833 |
| CTGTTT | 0.226 | 0.292 | -0.048 | 0.24 | 0.242 |
| AGATAA | 1.44 | -0.972 | -0.214 | 1.22 | 2.3 |
| GCCCTG | -0.805 | -0.472 | -0.505 | -0.669 | -0.99 |
| GAGAGT | -0.266 | -0.404 | -0.289 | -0.322 | -0.211 |
| ACGATC | -0.625 | -0.121 | -0.27 | -0.67 | -0.806 |
| GAAGAG | 0.235 | -1.12 | -0.554 | 0.092 | 0.378 |
| TCTTTG | 0.031 | 0.4 | 0.088 | 0.042 | 0.185 |
| CTACAA | 0.347 | 0.404 | -0.006 | 0.541 | 0.149 |
| CGTAGG | -1.01 | 0.7 | -0.217 | -0.821 | -0.767 |
| GTCCGG | 0.052 | -0.064 | 0.739 | 0.102 | 0.044 |
| CTGTTG | -0.097 | 0.144 | -0.149 | -0.071 | -0.113 |
| AACTAT | 1.45 | -0.352 | -0.173 | 1.26 | 1.8 |
| TGTACT | -0.181 | 0.136 | -0.257 | -0.215 | -0.131 |
| TCCCAT | 0.055 | 0.127 | -0.022 | 0.056 | -0.318 |
| GGGGAC | 0.521 | -0.234 | 0.214 | 0.882 | 0.527 |
| TTATAA | 1.47 | -0.189 | 0.182 | 1.22 | 2.31 |
| TCGGTG | 0.007 | 0.329 | 0.364 | -0.013 | 0.114 |
| AGTCAG | 0.614 | 0.221 | 0.664 | 0.353 | 0.357 |
| TTCGGA | 0.032 | 0.096 | 0.024 | -0.088 | 0.256 |
